{
  "source": "PubChem BioAssay AID686970",
  "about": "(National Center for Advancing Translational Sciences (NCATS), 2013)",
  "note": "Out of some 360,000 compounds screened, about 6,000 (1.7%) were called active. Inconclusive results, whose numbers are uncertain, are shown with a selection of clear calls. Calls come from the whole dose curve; as a rule, active = well fitted cell-killing curve with a large enough effect; inconclusive = small, poorly fitted or top-dose-only effect, or effect the other way; inactive = flat fitted curve, though single readings scatter. No potency is given beside an inconclusive call; the fits are too rough. Potency is the fitted concentration of half-maximal effect; tags give direction and shape of the fitted curve.",
  "data": [
    {"test": "qHTS for induction of synthetic lethality in tumor cells producing 2HG: qHTS for the HT-1080-NT fibrosarcoma cell line;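 note: NT is the 2HG producing partner of a matched IDH1 knockdown line; nearly all actives have a fitted effect of over 55% in size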;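 for activity, negative = less viability: 0% = DMSO-treated cells and -100% = media-only wells without cells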", "details": "HT-1080-NT fibrosarcoma viability, CellTiter-Glo ATP luminescence, 48 h; activity, negative = less viability: at 46.1 µM (top of the series) unless noted", "outline": "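HT-1080-NT; 750 cells/well; 5% FBS RPMI; 48 h compound, 37 degrees C; CellTiter-Glo luminescence; curve fitting and curve-class assignment.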", "values": [
      {"smiles": "CC(C)CC1C(=O)N(Cc2cn(CCC3OCCO3)nn2)CCS(=O)(=O)N1Cc1ccc(-c2cccc(N(C)C)c2)cc1", "note": "(stereo not given)", "Potency": "inconclusive [cytotoxic, partial curve]"},
      {"smiles": "CCCCCCCn1c(=N)n(CC(O)c2ccco2)c2ccccc21", "note": "(stereo not given)", "Potency": "active: 16.4 µM"},
      {"smiles": "O=C1C(Cc2ccccc2)Nc2ncnc(N3CCCCC3)c2N1Cc1ccc(Br)cc1", "note": "(stereo not given)", "Potency": "inconclusive [cytotoxic, single point]"},
      {"smiles": "Cc1c(NS(=O)(=O)c2cc(C(=O)OCC(=O)N3CCC(C)CC3)ccc2Cl)c(=O)n(-c2ccccc2)n1C", "activity, negative = less viability": "inactive: -16.7%"},
      {"smiles": "CC(=O)Nc1ccc(NC(=O)C/C(C)=N/NC(=O)c2cccc3ccccc23)cc1", "Potency": "inconclusive [cytotoxic, single point]"},
      {"smiles": "O=C1C2CC=CCC2C(=O)N1Nc1ccccc1", "note": "(stereo not given)", "Potency": "active: 20.6 µM"},
      {"smiles": "Cc1ccc(C(c2nnnn2CC2CCCO2)N2CCN(Cc3ccccc3)CC2)cc1", "note": "(stereo not given)", "Potency": "inconclusive [cytotoxic, single point]"},
      {"smiles": "O=C(CCCOc1ccccc1)Nc1cccc(S(=O)(=O)N2CCCCCC2)c1", "activity, negative = less viability": "inactive: -2.88%"},
      {"smiles": "CC(OC(=O)c1ccc(CN2CCCC2=O)cc1)C(=O)Nc1ccc(Cl)cc1", "note": "(stereo not given)", "activity, negative = less viability": "inactive: -4.17%"},
      {"smiles": "O=C(CC(=O)c1c(F)cccc1Cl)c1ccccc1O", "Potency": "inconclusive [cytotoxic, single point]"},
      {"smiles": "O=C(Cn1cnc2c(NCc3ccccc3)ncnc21)NCc1ccccc1", "Potency": "active: 8.2 µM"},
      {"smiles": "Cc1ccc(NC(=O)CSc2nc3ccccc3c(=O)n2CCCC(=O)NCCCN2CCOCC2)cc1C", "Potency": "active: 16.4 µM"},
      {"smiles": "CC1CCCC(C)N1S(=O)(=O)c1ccc(NC(=O)CNC2CCCC2)cc1", "note": "(stereo not given)", "activity, negative = less viability": "inactive: -23.7%"},
      {"smiles": "O=C(Nc1ccc(OC(F)(F)F)cc1)N1CCc2nc(NCc3cccc(Oc4ccccc4)c3)ncc2C1", "Potency": "inconclusive [cytotoxic, single point]"},
      {"smiles": "CCCc1ccc(O)c(N=Cc2cc(Br)cc(OCC)c2O)c1", "Potency": "inconclusive [cytotoxic, single point]"},
      {"smiles": "O=C(COc1ccc2ccccc2c1)Nc1ccc2c3c(cccc13)CC2", "Potency": "inconclusive [cytotoxic, single point]"},
      {"smiles": "CCOC(=O)Cc1c(C)nc2cc(-c3ccc(C(C)(C)C)cc3)[nH]n2c1=O", "Potency": "inconclusive [cytotoxic, full curve, poor fit]"},
      {"smiles": "O=C(Nc1nc(-c2cccc3ccccc23)cs1)c1ccc2c(c1)S(=O)(=O)c1ccccc1C2=O", "Potency": "inconclusive [cytotoxic, single point]"},
      {"smiles": "Cc1cccc(C)c1NC(=O)Cn1c(=O)n(CCC(=O)NCc2ccco2)c(=O)c2sccc21", "activity, negative = less viability": "inactive: 14.1%"},
      {"smiles": "Clc1ccc(/C=N\\Nc2ccccc2)cc1", "Potency": "inconclusive [cytotoxic, single point]"},
      {"smiles": "NC(CCc1ccccc1)c1csc(NC(=O)Nc2cccc(C(F)(F)F)c2)n1", "note": "(stereo not given)", "Potency": "active: 16.4 µM"},
      {"smiles": "CC1=C(C(=O)OC2CCCCCCC2)C(c2cccc(O)c2)NC(=O)N1", "note": "(stereo not given)", "Potency": "inconclusive [cytotoxic, single point]"},
      {"smiles": "Cc1ccc(/C=C/C(=O)N2CCN(c3cccc(C(F)(F)F)c3)CC2)cc1", "Potency": "inconclusive [cytotoxic, single point]"},
      {"smiles": "Cc1ccc(C)c(NC(=S)NC(NC(=O)/C=C/c2ccccc2)C(Cl)(Cl)Cl)c1", "note": "(stereo not given)", "Potency": "inconclusive [cytotoxic, partial curve]"},
      {"smiles": "CN(C)Cc1c(O)ccc2c(=O)c(-c3ccc(Cl)cc3)coc12", "activity, negative = less viability": "inactive: 9.69%"},
      {"smiles": "CCCCCN(C(=O)CCC(=O)OCC(=O)c1ccc(C(C)CC)cc1)c1c(N)n(CCCC)c(=O)[nH]c1=O", "note": "(stereo not given)", "Potency": "inconclusive [cytotoxic, single point]"},
      {"smiles": "Cc1ccc(C#CC[N+]2(C)CCCCC2)cc1", "activity, negative = less viability": "inactive: -2.86%"},
      {"smiles": "CCN(C(=O)COC(=O)c1ccc(C=O)cc1)c1c(N)n(Cc2ccccc2)c(=O)[nH]c1=O", "activity, negative = less viability": "inactive: 0.446%"},
      {"smiles": "Cc1noc(C)c1S(=O)(=O)N(CC(=O)NCCc1ccccc1)c1ccc(C(C)C)cc1", "activity, negative = less viability": "inactive: 4.15%"},
      {"smiles": "COc1ccc(/C=N/NC(=O)c2cccnc2)cc1COc1ccc([N+](=O)[O-])cc1", "Potency": "inconclusive [cytotoxic, partial curve]"},
      {"smiles": "CCCCN(CCCNC(=O)c1ccc2c(c1)NC(=O)CN2C)c1ccccc1", "Potency": "inconclusive [cytotoxic, single point]"},
      {"smiles": "CC(=O)c1cccc(S(=O)(=O)Nc2ccc3nc(C)sc3c2)c1", "Potency": "inconclusive [cytotoxic, single point]"},
      {"smiles": "CCCc1nc2c(sc3nc4c(cc32)COC(C)(C)C4)c(=O)n1CCN(C)C", "Potency": "inconclusive [rising, full curve, poor fit]"},
      {"smiles": "Cc1ccc(C(=O)CSc2nn3c(=O)c(C(C)(C)C)nnc3s2)cc1", "activity, negative = less viability": "inactive: 5.64%"},
      {"smiles": "COc1ccc(NC(=O)COC(=O)c2ccc(C)c(S(=O)(=O)N3CCCCC3)c2)cc1", "activity, negative = less viability": "inactive: -3.97% [at 9.24 µM]"},
      {"smiles": "CCOC(=O)c1c(-c2ccccc2)nc2cc(C)ccn12", "activity, negative = less viability": "inactive: -23.2%"},
      {"smiles": "N#Cc1cc(-c2ccccc2)cnc1Cl", "activity, negative = less viability": "inactive: -1.81%"},
      {"smiles": "Cc1cc(F)ccc1-c1cc(C(=O)NCc2cccc(C(F)(F)F)c2)[nH]n1", "Potency": "inconclusive [cytotoxic, single point]"},
      {"smiles": "O=C(N/N=C/c1cccc([N+](=O)[O-])c1)c1cc2ccccc2o1", "activity, negative = less viability": "inactive: 14.3%"},
      {"smiles": "O=C(N/N=C/c1cc([N+](=O)[O-])ccc1O)Nc1ccccc1", "Potency": "inconclusive [cytotoxic, partial curve]"},
      {"smiles": "O=C1NC[C@H](Cc2ccccc2)N(C[C@@H]2CCCN2C[C@H](Cc2ccccc2)N2C[C@H](Cc3ccc(O)cc3)N(CCc3ccccc3)C(=O)C2=O)C1=O", "Potency": "inconclusive [cytotoxic, single point]"},
      {"smiles": "COCC(C)NC(=O)/C=C/c1ccc(OC)cc1", "note": "(stereo not given)", "Potency": "inconclusive [rising, full curve, poor fit]"},
      {"smiles": "O=S(=O)([N-]c1nc2ccccc2nc1-[n+]1ccc(-c2ccncc2)cc1)c1ccccc1", "activity, negative = less viability": "inactive: 14.4%"},
      {"smiles": "COc1cc(C(=O)OCC(=O)c2cc(C)n(C)c2C)cc(OC)c1OC", "Potency": "inconclusive [cytotoxic, single point]"},
      {"smiles": "Cc1nnc(C)c2c(C)n(-c3ccc(Cl)c(N)c3)c(C)c12", "Potency": "inconclusive [cytotoxic, single point]"},
      {"smiles": "COc1ccc(CCNC(=O)Cc2cccc(C(F)(F)F)c2)cc1OC", "activity, negative = less viability": "inactive: 6.18%"},
      {"smiles": "Brc1ccc(-c2csc(-c3c[nH]c4ccccc34)n2)cc1", "Potency": "inconclusive [cytotoxic, single point]"},
      {"smiles": "CC(=O)C1CCC2C3CC=C4CC(SC(=N)N)CCC4(C)C3CCC12C", "note": "(stereo not given)", "Potency": "inconclusive [cytotoxic, single point]"},
      {"smiles": "Cc1ccc(NC(=O)CC2S/C(=N/N=C3\\CCCc4ccccc43)NC2=O)cc1", "note": "(stereo not given)", "Potency": "inconclusive [cytotoxic, single point]"},
      {"smiles": "CCCCCCNCC(=O)N1CCC(Cc2ccccc2)CC1", "Potency": "inconclusive [cytotoxic, partial curve]"},
      {"smiles": "CC1(C)CC(N2CCOCC2)=CC(=S)N1", "Potency": "inconclusive [rising, single point]"},
      {"smiles": "O=C(Nc1ccc2c(c1)OCCO2)C(CCc1ccccc1)N1CCN(C/C=C/c2ccccc2)CC1", "note": "(stereo not given)", "Potency": "inconclusive [cytotoxic, single point]"},
      {"smiles": "COc1ccc(NC(C)C(=O)Nc2ccc(C(C)(C)C)cc2)cc1Cl", "note": "(stereo not given)", "Potency": "inconclusive [cytotoxic, single point]"},
      {"smiles": "Cn1ccnc1C(OC(=O)c1ccc(Cl)cc1)C(F)(F)F", "note": "(stereo not given)", "activity, negative = less viability": "inactive: -1.3%"},
      {"smiles": "CCCCCCCCN1C(=O)[C@H](CC(=O)NCc2ccccc2)C[C@@]2(C(=O)OCC)CCC=C12", "Potency": "inconclusive [cytotoxic, single point]"},
      {"smiles": "C#CCOCCOCCOCCNc1nc(N2CCN(C(=O)CCCCCCCCCCNC(=O)[C@@H](CCC(=O)O)n3cc(CCCCCN)nn3)CC2)nc(N2CCN(C(=O)CCCCCCCCCCNC(=O)[C@H](CCCCN)n3cc(C[C@@H](C)CC)nn3)CC2)n1", "Potency": "inconclusive [cytotoxic, single point]"},
      {"smiles": "OC[C@@H]1CN(Cc2cccs2)C[C@H](n2cnc3c(NCc4ccco4)ncnc32)O1", "activity, negative = less viability": "inconclusive: 10.5%"},
      {"smiles": "CC(=O)c1ccc(S(=O)(=O)Nc2ccc(C(=O)NCC(c3ccco3)N3CCCC3)cc2)cc1", "note": "(stereo not given)", "activity, negative = less viability": "inactive: 1.14%"},
      {"smiles": "Cc1ccc(/C=C2\\SC(=S)N(CCC(=O)NNC(=O)c3ccccc3O)C2=O)cc1", "Potency": "inconclusive [cytotoxic, full curve, poor fit]"},
      {"smiles": "CCC(CC)c1nnc(NC(=O)Oc2ccccc2)s1", "Potency": "inconclusive [cytotoxic, full curve, poor fit]"},
      {"smiles": "C#CCOCCOCCOCCNc1nc(N2CCN(C(=O)CCCCCCCCCCNC(=O)[C@@H](CCSC)n3cc(CCO)nn3)CC2)nc(N2CCN(C(=O)CCCCCCCCCCNC(=O)[C@H](CO)n3cc(CCCCCN)nn3)CC2)n1", "Potency": "inconclusive [cytotoxic, single point]"},
      {"smiles": "CCC(C)c1ccc(NC(=O)C2CCN(c3ncccn3)CC2)cc1", "note": "(stereo not given)", "Potency": "inconclusive [cytotoxic, single point]"},
      {"smiles": "COc1ccc(S(=O)(=O)N2CCOCC2)cc1NC(=O)CN1CCCc2ccccc21", "activity, negative = less viability": "inactive: 7.7%"},
      {"smiles": "COC(=O)c1cc(S(=O)(=O)n2nc(C)c(Br)c2C)c(Cl)cc1Cl", "Potency": "inconclusive [cytotoxic, single point]"},
      {"smiles": "CNC(=S)N/N=C/c1ccc(-c2cccc(C(=O)O)c2)o1", "Potency": "inconclusive [cytotoxic, single point]"}
    ]}
  ]
}
